# Source: the RNAGym collection of RNA variant scans (doi:10.1073/pnas.2313332121)
# Variants at the floor of the assay are shown more often than the library holds them.
# B1: TPR 5TU (parent)
# chain: GGAUCUUCUCGAUCUAACAAAAAAGACAAAUCUGCCACAAAGCUUGAGAGCAUCUUCGGAUGCAGAGGCGGCAGCCUUCGGUGGCGCGAUAGCGCCAACGUUCUCAACUAUGACACGCAAAACGCGUGCUCCGUUGAAUGGAGUUUAUCAUG
# Variants of: B1
# Assay: polymerase ribozyme fitness, log enrichment relative to wild type (log ratio); higher = more active; in vitro selection for triplet polymerase activity
# In short: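 Each subunit of a heterodimeric triplet polymerase ribozyme was represented by a PCR-built, transcribed mutant library that underwent triplicate single-round in vitro selection with frozen incubation at −7 °C. Extended constructs were recovered by gel excision, streptavidin-bead capture and RT-PCR, and Illumina sequencing of input and output libraries kept genotypes with ≥10 input reads and ≥1 read per output. Fitness is the logarithm of genotype enrichment relative to wild-type enrichment, from inverse-variance-weighted replicate averages, with a logarithm base of 2.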
row,Variant,polymerase ribozyme fitness (log ratio)
1,GGAUCUUCUCGAUCUAACAAAAAAGACAAAUCUGCCACAAAGCUUGAGAGCAUCUUCGAAUGCAGAGGCGGCAGCCUUCGGUGGCGCGAUAGCGCCAACGUUCUCAACUAUGACACGCAAAACGCGUGCUCCGUUGAAUCGAGGUUAUCAUG [G59A G140C U144G],-3.79
2,GGAUCUUCUCGAUCUAACAAAAAAGACAAAUCUGCCACAAAGCUUGAGAGCAUCUUCGAAUGCAGAGGCGGCAGCCUUCGGUGGCGCUAUAGCGCCAACGUUCUCAACUAUGACAGGCAAAACGCGUGCUCCGUUGAAUGGAGUUUAUCAUG [G59A G88U C116G],-3.56
3,GGAUCUUCUCGAUCUAACAAAAAAGACAAAUCUGCCACAAAGCUUGAGAGCAUCUUCGAAUGCAGAGGCGGCAGCCUUCGGGGGCGUGAUAUCGCCAUCGUUCUCAACUAUGACACGCAAAACGCGUGCUCCGUUUAAUGGAGUUUAUCAUG [G59A U82G C87U G92U A98U G136U],≤ -4.2
4,GGAUCUUCUCGAUCUAACAAAAAAGACAAAUCUGCCACAAAGCUUGAGAGCAUCUUCGAAUGCAGAGGCGGCAGCCUUCGGUGGCGCGAUACCGCCAACGUUCUCAACUAUGACACGCAAAACGCGUGCUCCGUUGAAUGGAGUUUAUCAUG [G59A G92C],-2.78
5,GGAUCUUCUCGAUCUAACAAAAAAGACAAAUCUGCCACAAAGCUUGAGAGCAUCUUCGAAUGCAGAGGCGGCAGCCUUCGGUCGCGCGUUAGCGCCAACGUUCUCAACUAUGACACGCAAAACGCGUGCUCCGUUGAAUGGAGUUUAUCAUG [G59A G83C A89U],-1.39
6,GGAUCUUCUCGAUCUAACAAAAAAGACAAAUCUGCCACAAAGCUUGAGAGCAUCUUCGAAUGCAGAGGCGGCAGCCUUCGGUGGCUCGAUGGCGCCAACGUUCUCAACUAUGACAAGCAAAACGCGUGCUCCGUUGAAUGUAGUAUAUCAUG [G59A G86U A91G C116A G141U U145A],≤ -4.2
7,GGAUCUUCUCGAUCUAACAAAAAAGACAAAUCUGCCACAAAGCUUGAGAGCAUCUUCGAAUGCAGAGGCGGCAGCCUUCGGUGGCGCGAUAGCACCAACGUUCUCAACUAUGACACGCAAAACGCGUGCGCCGUUGAAUGGAGUUUAUCGUG [G59A G94A U130G A150G],≤ -4.2
8,GGAUCUUCUCGAUCUAACAAAAAAGACAAAUCUGCCACAAAGCUUGAGAGCAUCUUCGAAUGCAGAGGCGGCAGCCAUCGGUGGCGCGAUAGCGCCAACGGUCUCAACUAUGACACGCACUACGCGUGCUCCGUUGAAUGGAGUUUACCAUG [G59A U77A U101G A120C A121U U148C],≤ -4.2
9,GGAUCUUCUCGAUCUAACAAAAAAGACAAAUCUGCCACAAAGCUUGAGAGCAUCUUCGAAUGCAGAGGCGGCAGCCUUCGGUGUCGCGAUAGCGCCAACGUUCGCAACUAUGACACGCAAAGCGCGUGCUCCGAUGAAUGGAGUUUAUCAUG [G59A G84U U104G A122G U134A],≤ -4.2
10,GGAUCUUCUCGAUCUAACAAAAAAGACAAAUCUGCCACAAAGCUUGAGAGCAUCUUCGAAUGCAGAGGCGGCAGCCUUCGGUGGCCCGAUAGCGCCAACGUUCUCAACUAUGACACGCAAAACGCCUGCUCCGUUGAAUGGAGUUUAUCGUG [G59A G86C G126C A150G],≤ -4.2
11,GGAUCUUCUCGAUCUAACAAAAAAGACAAAUCUGCCACAAAGCUUGAGAGCAUCUUCGAAUGCAGAGGCGGCAGCCUUCGGUGGCGCGAUAUCGCCAACGUUCCCAACUAUGACACGCAACACGCGUGCUCCGUUGAAUGGAGUUUAUCAUG [G59A G92U U104C A121C],-2.09
12,GGAUCUUCUCGAUCUAACAAAAAAGACAAAUCUGCCACAAAGCUUGAGAGCAUCUUCGAAUGCAGAGGCGGCAGCCUUCGGUGGCGCAAUAGCGCCAACGUUCUCAACUAUGACACGCAAAACGCGUGCUCCGUUGAAUGGAGUUUAUCAUG [G59A G88A],-4.04
13,GGAUCUUCUCGAUCUAACAAAAAAGACAAAUCUGCCACAAAGCUUGAGAGCAUCUUCGAAUGCAGAGGCGGCAGCCUUCGGUGGCGCUAUAGCGCCAACGUUCUCAACUAUGACACGCAAAACGCGUGCUCCGUUGAAUGGAGUUUAUCAUG [G59A G88U],-3.96
14,GGAUCUUCUCGAUCUAACAAAAAAGACAAAUCUGCCACAAAGCUUGAGAGCAUCUUCGAAUGCAGAGGCGGCAGCCUUCAGUGGCGAGAUAGCGCCAACGUUCUCAACUAUGACACGCAAAACGCGUGCUCCGUUGAAUGGAGUUUAUCAUG [G59A G80A C87A],≤ -4.2
15,GGAUCUUCUCGAUCUAACAAAAAAGACAAAUCUGCCACAAAGCUUGAGAGCAUCUUCGAAUGCAGAGGCGGCAGCCUUCCGUGGCGCGAUAGCGCCAACGUUCUCAACUAUGACACGCAAAACGCGUGCUCCGUUGAAUGGAGUUUAUCAUG [G59A G80C],≤ -4.2
16,GGAUCUUCUCGAUCUAACAAAAAAGACAAAUCUGCCACAAAGCUUGAGAGCAUCUUCGCCUGCAGGGGCGGCAGCCUUCGGUGGCGCGAUAGAGCCAACGUUCUCAACUAUGACACGCAAAACGCGUGCUCCGUUGAAUGGAGAUUAUGAUG [G59C A60C A66G C93A U144A C149G],≤ -4.2
17,GGAUCUUCUCGAUCUAACAAAAAAGACAAAUCUGCCACAAAGCUUGAGAGCAUCUUCGAAUGCAGAGGCGGCAGCCUUCUGUGGCGCGAUAGCGCCAACGUUCUCAACUAUGACACGCAAAACGCGGGCUCCGUUGAAUGGAGUUUAUCAUG [G59A G80U U127G],≤ -4.2
18,GGAUCUUCUCGAUCUAACAAAAAAGACAAAUCUGCCACAAAGCUUGAGAGCAUCUUCGAAUGCAGAGGCGGCAGCCUUCGUUGGCACGAUAGCGCCAACGUUCUCAACUAUGACACGCUAAACGCGUGCUUCGUUGAAUGGAGUUUAACAAG [G59A G81U G86A A119U C131U U148A U151A],≤ -4.2
19,GGAUCUUCUCGAUCUAACAAAAAAGACAAAUCUGCCACAAAGCUUGAGAGCAUCUUCGAAUGCAGAGGCGGCAGCCUGCGGUGGCGCGAUUGCGCCAACGUGCUCAACUAUGACACGCAAAACGCGUGCUCCGUUGAAUGGAGUUUAUCAUG [G59A U78G A91U U102G],≤ -4.2
